{"source": "PubChem BioAssay AID743279", "about": "(National Center for Advancing Translational Sciences (NCATS), 2014)", "note": "In all, about 360,000 compounds went through this assay and about 17,000 (4.7%) were called active. This list was built around the results that the source calls inconclusive (neither active nor inactive); the mix of calls is not that of the screen. No stated cut-off is given here; in the data, active means activity change below about -50%; inconclusive means mostly about -30% to -49%; inactive means weaker than that. On the % scale 0 is the no-effect control and ±100 the full control effect."}
{"test": "qHTS for Inhibitors of Inflammasome Signaling: IL-1-beta AlphaLISA Primary Screen", "conditions": "THP-1 LPS/ATP IL-1B secretion, 16 h; at 57.5 µM, active compounds read low", "in_short": "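Secreted IL-1B measured by AlphaLISA bead assay after 16 h compound exposure of THP-1 cells; compounds (final up to 57.5 uM) added 1 h before LPS (250 ng/mL) and ATP (1.25 mM) stimulation; lower signal means less secretion.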"}
{"smiles": "O=C(NCc1nc(-c2ccccc2)cs1)c1ccccc1", "activity change": "inconclusive: -45.3%"}
{"smiles": "Cc1ccc2[nH]c3c(c2c1)CCN(C)C3", "activity change": "inconclusive: -46.8%"}
{"smiles": "O=C(NCCSCc1ccccc1)c1ccc(C2SCC(=O)N2Cc2ccccc2)cc1", "note": "(stereo not drawn)", "activity change": "inconclusive: -42.8%"}
{"smiles": "Fc1ccc(-c2cc3nc(-c4ccccc4)cc(N4CCN(CCN5CCOCC5)CC4)n3n2)cc1", "activity change": "active: -74.3%"}
{"smiles": "Cc1ccc(CN2C(=O)c3ccccc3NC2c2cc(Br)ccc2O)cc1", "note": "(stereo not drawn)", "activity change": "inconclusive: -33%"}
{"smiles": "CC(C)(C)C(=O)Nc1cc2c3c(c1)CCC(=O)N3CCC2", "activity change": "inactive: 11.2%"}
{"smiles": "COc1cccc(-c2nnc(SCC(=O)Nc3ccc(S(N)(=O)=O)cc3)n2C)c1", "activity change": "inactive: -2.84%"}
{"smiles": "COc1ccc2c(c1)[C@H]1[C@H](CO2)[C@H](c2ccccc2)[C@]2(C)C(=O)Nc3ccc(Br)cc3C(=O)N12", "activity change": "inconclusive: -32.3%"}
{"smiles": "Cn1c(SCC(=O)N/N=C/C=C\\c2ccco2)nc2ccccc21", "activity change": "inconclusive: -32.4%"}
{"smiles": "CCOc1ccc(C(=O)NCC(=O)NCC(c2ccco2)N2CCCCC2)cc1", "note": "(stereo not drawn)", "activity change": "inactive: 0.736%"}
{"smiles": "CCN(C(=O)c1ccco1)c1nnc(-c2cccnc2)s1", "activity change": "inactive: -12.1%"}
{"smiles": "CCc1ccc(/C=C2/C(=O)NC(=O)N2C(C)=O)cc1", "activity change": "inconclusive: -43.6%"}
{"smiles": "CC(C)(C)c1ccc(NC(=S)NCc2cccnc2)cc1", "activity change": "inactive: 18.4%"}
{"smiles": "O=C(Nc1cccc(-c2cccc(Cl)c2)c1)C1CCN(C2CCC2)CC1", "activity change": "inconclusive: -40.2%"}
{"smiles": "CC(OC(=O)c1nn(C)c(=O)c2ccccc12)C(=O)NC1CCCCC1C", "note": "(stereo not drawn)", "activity change": "inactive: 6.75%"}
{"smiles": "CCCCCCN=C1CC(C)(C)CC(=O)/C1=C(/O)CCC", "activity change": "inconclusive: -37.6%"}
{"smiles": "CCCN1CCc2c(sc(NC(=O)Cc3ccc(F)cc3)c2C(N)=O)C1", "activity change": "inconclusive: -36%"}
{"smiles": "O=C(NCC(=O)N1CCN(c2ccccc2O)CC1)c1ccc2c(c1)OCO2", "activity change": "inconclusive: -37.2%"}
{"smiles": "COc1ccc(CCn2ccc(O)c(Cc3ccc(Cl)cc3Cl)c2=O)cc1OC", "activity change": "inconclusive: -30.4%"}
{"smiles": "Cc1ccc(S(=O)(=O)/N=c2\\scc(C)n2C)cc1", "activity change": "inconclusive: -32.6%"}
{"smiles": "COc1cc2c(cc1OC)C(c1cc(Br)ccc1F)N(C(=O)CCl)CC2", "note": "(stereo not drawn)", "activity change": "active: -71.3%"}
{"smiles": "CC(C)CCCN1C(Nc2ccccc2)=NC[C@@H]1Cc1ccccc1", "activity change": "inconclusive: -40.6%"}
{"smiles": "CCCCC[C@@H]1CCCCC[C@H](O)C[C@@H](O)[C@@H](O)/C=C/C(=O)O1", "activity change": "inconclusive: -31.2%"}
{"smiles": "COc1ccc2c(c1)cc1n2CCN=C1NN", "activity change": "inconclusive: -35.2%"}
{"smiles": "CN(C)CCn1c2c(c(SCC(=O)Nc3cccc(C(F)(F)F)c3)nc1=O)CCCC2", "activity change": "inconclusive: -43%"}
{"smiles": "Fc1cccc(C[n+]2csc3ccccc32)c1", "activity change": "active: -118%"}
{"smiles": "CC1=C(C(=O)OCc2ccccc2)C(c2ccc(N3CCOCC3)cc2)NC(=O)N1", "note": "(stereo not drawn)", "activity change": "inconclusive: -36.5%"}
{"smiles": "Cc1cc(C)nc(NS(=O)(=O)c2ccc(NC(=O)c3ccccc3Br)cc2)n1", "activity change": "inactive: -1.76%"}
{"smiles": "Cc1ccccc1C(=O)Nc1ccc(N2CCOCC2)nc1", "activity change": "inconclusive: -35.3%"}
{"smiles": "COCCN1C(=O)N[C@@H](CCc2ccccc2)C(C(C)=O)=C1C", "activity change": "inactive: 34%"}
{"smiles": "Cc1ccc(CN2C(=O)CCC2C(=O)NCCN2CCN(c3cccc(Cl)c3)CC2)cc1", "note": "(stereo not drawn)", "activity change": "inconclusive: -30.4%"}
{"smiles": "Cc1ccccc1C(=O)N1CCN(c2ccc(NC(=O)CSc3ccc(Cl)cc3)cc2)CC1", "activity change": "active: -72.1%"}
{"smiles": "c1ccc(NN=C(c2ccccc2)c2cccs2)cc1", "activity change": "inactive: -13.7%"}
{"smiles": "COC(=O)[C@@]12C[C@@H](CC(=O)NCc3ccccc3)C(=O)N(Cc3cccc4ccccc34)C1=CCC(C)(C)C2", "activity change": "active: -82.8%"}
{"smiles": "Cc1ccc(-c2nnc(Nc3ccc(CC(N)=O)cc3)c3ccccc23)cc1", "activity change": "inconclusive: -46.6%"}
{"smiles": "CCN1CCN(c2ccc(S(=O)(=O)N3CCCCC3)cc2NC(=O)c2cccc(Cl)c2)CC1", "activity change": "inconclusive: -45.4%"}
{"smiles": "O=c1/c(=C/c2cccc3ccccc23)sc2ncnn12", "activity change": "inconclusive: -35.3%"}
{"smiles": "COc1ccc(-c2nc3c(c(SCC(=O)N4CCOCC4)n2)Cc2c(CO)cnc(C)c2O3)cc1", "activity change": "inconclusive: -44%"}
{"smiles": "Cc1cc(-c2csc3nc[nH]c(=S)c23)cc(C)c1C", "activity change": "inactive: -8.86%"}
{"smiles": "N#Cc1c(N2CCN(C(=O)c3ccccc3)CC2)nc(-c2ccccc2)c2c1CCCC2", "activity change": "inconclusive: -33%"}
{"smiles": "Cc1nn(Cc2c(F)c(F)c(F)c(F)c2F)c(C)c1NC(=O)c1nn(C)cc1Br", "activity change": "inconclusive: -31.4%"}
{"smiles": "CCOC(=O)C1=C(N)n2c(s/c(=C\\c3cccnc3)c2=O)=C(C#N)C1c1cccnc1", "note": "(stereo not drawn)", "activity change": "inactive: 2.52%"}
{"smiles": "CCC(C)c1c(O)nc(SCC(=O)N2CCCCCC2)[nH]c1=O", "note": "(stereo not drawn)", "activity change": "active: -50.6%"}
{"smiles": "CCc1ccc2c(c1)NC(=O)C2(C)Cc1ccc(F)cc1", "note": "(stereo not drawn)", "activity change": "inactive: 25.3%"}
{"smiles": "CCCCn1cnc2c(c(-c3ccccc3)c(-c3ccccc3)n2Cc2ccco2)c1=N", "activity change": "active: -72.9%"}
{"smiles": "CCNC(=O)C1CCCN(C(=O)c2cccs2)CC1", "note": "(stereo not drawn)", "activity change": "inactive: 2.36%"}
{"smiles": "CC12C=CC(=O)C=C1CCC1C2C(=O)CC2(C)C1CCC2(O)C(=O)CO", "note": "(stereo not drawn)", "activity change": "inconclusive: -43.1%"}
{"smiles": "CCOC(=O)c1sc(NC(=O)c2sccc2C)cc1C", "activity change": "inconclusive: -32.7%"}
{"smiles": "O=C(c1ccc2c(c1)OCO2)N1CCN(S(=O)(=O)c2ccc(Br)cc2Cl)CC1", "activity change": "inconclusive: -49.6%"}
{"smiles": "COc1ccccc1COCC(O)CN(Cc1ccco1)Cc1ccccc1O", "note": "(stereo not drawn)", "activity change": "inconclusive: -39.6%"}
{"smiles": "CC(C)C[C@@H](CN1CCC[C@H]1CN1C(=O)C(=O)NC[C@@H]1Cc1ccc(O)cc1)N1C[C@H](Cc2ccccc2)N(CCc2ccccc2)C(=O)C1=O", "activity change": "inconclusive: -33.4%"}
{"smiles": "C#CCOCCOCCOCCNc1nc(N2CCN(C(=O)CCCCCCCCCCNC(=O)[C@@H](CCSC)n3cc(CCO)nn3)CC2)nc(N2CCN(C(=O)CCCCCCCCCCNC(=O)[C@H]([C@@H](C)CC)n3cc(CCCCCN)nn3)CC2)n1", "activity change": "active: -72.4%"}
{"smiles": "COc1cccc(NC(=O)CSc2nc3ccccc3nc2N2CCOCC2)c1", "activity change": "inconclusive: -40.2%"}
